Assay results taken from paper PMC5137157.
These are yes or no findings as the source states them, for the method shown. For part of these data: In cells and extracts the contact can be indirect. Some entries that bind do so weakly or less than the wild type.

What was measured:
[1] = target: NEU1-Flag A319V mutant (human) (UniProt Q99519); assay: co-IP; NEU1-Flag constructs immunoprecipitated with mouse monoclonal anti-Flag on protein G sepharose (2 h, 4 °C) from crude membranes of co-transfected COS-7 cells solubilised in TEM buffer with 1% CHAPS; NEU1-HA detected by anti-HA western blot
[2] = target: Wild-type human NEU1-Flag (human) (UniProt Q99519); assay: as above
[3] = target: NEU1-Flag G328I mutant (human) (UniProt Q99519); assay: as above
[4] = target: NEU1-Flag V330A mutant (human) (UniProt Q99519); assay: as above
[5] = target: NEU1-Flag G321I mutant (human) (UniProt Q99519); assay: as above
NEU1-Cub-PLV (human) = NEU1-Cub-PLV (human) (UniProt Q99519); assay: two-hybrid; split-ubiquitin yeast two hybrid in THY.AP4 yeast; bait NEU1-Cub-PLV (Met-repressible), prey NEU1-NubG; growth on interaction-selective medium (CSM -Leu -Trp -Ade -His) with or without 5, 50 and 500 uM Met, 48 h at 30 °C

| Substance | binding [1] | binding [2] | binding [3] | binding [4] | binding [5] | binding (NEU1-Cub-PLV (human)) |
| --- | --- | --- | --- | --- | --- | --- |
| NEU1-HA (from UniProt Q99519 48-415) (enzyme) | no binding | binds | no binding | no binding | no binding | – |
| NEU1-NubG (from UniProt Q99519 48-415) (enzyme) | – | – | – | – | – | binds |
